In PubChem BioAssay AID686978 (National Center for Advancing Translational Sciences (NCATS), 2013):
The whole screen tested about 420,000 compounds, of which about 64,000 (15%) were called active. The inconclusive results got no clear call from the source; some entries with a clear call stand among them for comparison. Calls come from the whole dose curve; as a rule, active = well fitted inhibition curve with a large enough effect; inconclusive = small, poorly fitted or top-dose-only effect; inactive = flat fitted curve, though single readings scatter. Potencies of inconclusive entries are left out as doubtful fits. Numbered stars: 1 amine (or outer) side, 2 acyl side, 3 side chain; on linkers, the order of the positions; unused ones are H or OH. Bridge positions count the residues as written; N and C are the ends. Square brackets hold non-standard residues; d marks the D form. Peptide text beside a SMILES is read from it. ξ: configuration not given here. X12 = CC[C@H](CCC[C@@H](O)[C@@H](C)C(=O)O[C@H](C)[C@@H](C)C/C=C(C)/C(=C\C(=O)[*:1])OC)O[*:2]; NMeξIle = CC[C@H](C)C(NC)C(=O)O; NMeV = CN[C@H](C(=O)O)C(C)C; NMeS = CN[C@@H](CO)C(=O)O

Assay: qHTS for Inhibitors of human tyrosyl-DNA phosphodiesterase 1 (TDP1): qHTS in cells in absence of CPT; note: nearly all actives have a fitted effect of over 55% in size
Settings: DT40 Tdp1-/- hTDP1 cells, no CPT, ATP luminescence, 48 h; activity change, negative = growth inhibition: at 46.2 µM (top of the series) unless noted
In short: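 Chicken DT40 Tdp1-/- cells complemented with human TDP1, screened without camptothecin (DMSO vehicle only), 400 cells/well. Compounds pin-transferred, cells incubated at 37 °C for at least 48 hr. Growth read as ATP-dependent luminescence (CellTiter-Glo, 30 min at RT).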
% is set by controls: 0 for no effect and ±100 for the full control effect; potency is the fitted concentration of half-maximal effect; tags give direction and shape of the fitted curve.

Row | SMILES | activity change, negative = growth inhibition | Potency
1 | Cc1cccc(C)c1NC(=O)COC(=O)COc1ccc2c(C)cc(=O)oc2c1 | inactive: -16.8% | 
2 | Cc1cc(C)nc(N2CCC(C(=O)NCCc3ccccc3)CC2)n1 |  | active: 9.2 µM
3 | Cc1ccc(/C=C2\SC(=S)N(CCCC(=O)NNC(=O)c3ccccc3O)C2=O)cc1 |  | active: 18.4 µM
4 | Cc1cccc(C2=NN(c3ccccc3)[C@H](CO)[C@H]2c2ccccc2)c1 |  | inconclusive [inhibitor, single point]
5 | COc1cc(C(=O)c2c(C)c(CCC#N)n3ccccc23)cc(OC)c1OC | inactive: -17.6% | 
6 | CN(C)c1ccc(NC(=O)CSC2=Nc3ccccc3C3=NC(CCC(=O)NCc4cccs4)C(=O)N23)cc1 (configuration not stated) |  | inconclusive [inhibitor, single point]
7 | Cc1cc(NC(=O)Cc2ccsc2)ccc1Br | inactive: -10.8% | 
8 | Cc1cccc(/C=N/NC(=O)c2c(-c3ccccc3)noc2C)c1O |  | active: 2.91 µM
9 | Cc1ccc(C(=O)C(OC(=O)c2cnccn2)c2ccccc2)cc1C (configuration not stated) | inactive: -11% | 
10 | Cc1ccc(C(=O)C(C)CN2CCCCC2)cc1 (configuration not stated) |  | inconclusive [inhibitor, single point]
11 | CCOC(=O)C(Cc1ccnnc1)=NO | inconclusive: -50.7% [inhibitor] | 
12 | COCCNC(=O)c1ccc2c(c1)N=C(C)c1cc(C)ccc1S2 |  | active: 0.461 µM
13 | CCCS(=O)(=O)NC(=O)C1(C)CCN(C(=O)c2cccs2)C1 (configuration not stated) | inactive: -1.96% | 
14 | COc1cccc(C(=O)Nc2cccc(C(=O)OCc3cc(=O)n4c(C)csc4n3)c2)c1 |  | inconclusive [inhibitor, single point]
15 | O=C(NCc1ccco1)c1ccc2sc([C@@H]3O[C@H](CO)[C@H](O)[C@H](O)[C@H]3O)nc2c1 | inactive: -6.72% | 
16 | O=C1NC[C@H](CCCCN2CCN(CC3CCCCC3)C(=O)C2=O)N(CC2CCCCC2)C1=O | inactive: -2.93% | 
17 | CC(Sc1ncnc2sc(-c3ccccc3)cc12)C(=O)N1CCNC1=O (configuration not stated) |  | inconclusive [inhibitor, single point]
18 | CC1(C)C(C#N)=C(N)OC2=C1C(=O)CCC2 | inactive: 2.39% | 
19 | Cc1cc(C)c(CN2CCN(C(=O)Cn3cnc4c(OCc5ccccc5)ncnc43)CC2)c(C)c1 |  | active: 2.59 µM
20 | Cc1cc(C)n2cc(CSc3nnnn3-c3ccc(Cl)cc3)nc2n1 |  | inconclusive [inhibitor, single point]
21 | COc1ccc2cc(C#N)c(NC(C)C)nc2c1 |  | inconclusive [inhibitor, single point]
22 | CN(CC(=O)NCCc1ccccn1)S(=O)(=O)c1ccc(Cl)cc1 | inactive: 0.788% | 
23 | O=C(CCc1ccco1)CCc1ccco1 | inactive: -13.6% | 
24 | N#CCCN(C(=O)COC(=O)c1cc2ccccc2oc1=O)c1ccccc1 | inactive: 1.63% | 

Row | SMILES | activity change, negative = growth inhibition | Potency
25 | O=C(Nc1ccc(S(=O)(=O)NC2=NCCCCC2)cc1)c1cccc(OC(F)F)c1 |  | inconclusive [inhibitor, single point]
26 | CCOC(=O)C1=C(CN2CCN(C(=O)c3ccco3)CC2)NC(=O)NC1c1ccc(F)cc1 (configuration not stated) | inactive: 5.24% | 
27 | CC(C)N(Cc1ccccc1)C(=O)/C=C/c1ccccc1[N+](=O)[O-] |  | inconclusive [inhibitor, partial curve]
28 | O=[N+]([O-])c1ccc(NC(=S)NCC(c2cccnc2)N2CCOCC2)cc1 (configuration not stated) |  | inconclusive [inhibitor, single point]
29 | COc1ccc2cc(CN(Cc3cccnc3)Cc3nnnn3Cc3ccccc3)c(=O)[nH]c2c1 |  | inconclusive [inhibitor, single point]
30 | O=C(NNC(=O)c1ccc(S(=O)(=O)N2CCCC2)cc1)c1ccc(Br)cc1 | inactive: -6.53% | 
31 | CCOC(=O)COc1ccc(C)cc1C(=O)c1ccn2nc(-c3ccc(F)cc3)cc2n1 |  | active: 20.6 µM
32 | Cc1ccc(CCNC(=O)c2cc3sccc3n2Cc2ccc(F)cc2)cc1 |  | inconclusive [inhibitor, partial curve]
33 | CC[C@@H]1CCC[C@@H](O)[C@@H](C)C(=O)O[C@H](C)[C@@H](C)C/C=C(C)/C(OC)=C\C(=O)N(C)C([C@@H](C)CC)C(=O)N(C)[C@@H](C(C)C)C(=O)N(C)[C@@H](COC)C(=O)N2CCC[C@H]2C(=O)N(C)[C@@H](C(C)C)C(=O)N2CCC[C@H]2C(=O)O1 (some centres not stated) ([NMeξIle][NMeV][NMeS](Me)P[NMeV]P; linker N-C via X12) |  | active: 0.206 µM
34 | Cc1nc2cnc(N3CCOCC3)nc2n(CCc2ccccc2)c1=O |  | inconclusive [inhibitor, single point]
35 | O=C(CN1c2cccc3cccc(c23)S1(=O)=O)NCc1ccccc1Cl |  | inconclusive [inhibitor, single point]
36 | Cc1cc(C(=O)CSc2cccc[n+]2[O-])c(C)n1-c1ccc(OC(F)F)cc1 |  | inconclusive [inhibitor, partial curve]
37 | CN1CCN(c2oc(-c3ccc(OCc4ccc(Cl)cc4)cc3)nc2C#N)CC1 |  | inconclusive [inhibitor, single point]
38 | CC(C)(C)c1ccc(C2(C)NC(=O)N(CC(=O)NCc3cccs3)C2=O)cc1 (configuration not stated) |  | inconclusive [inhibitor, single point]
39 | Cc1ccccc1N(CC(=O)NC1CCCCC1)C(=O)CNC(=O)c1cccs1 | inconclusive: -31.1% [inhibitor] | 
40 | CC1(C(=O)N2CCC(CO)(Cc3cccc(C(F)(F)F)c3)CC2)CC1 |  | inconclusive [inhibitor, single point]
41 | N[C@@]1(C(=O)O)CN[C@@H](C(=O)O)C1 | inactive: -12.9% | 
42 | CC(C)(C)OC(=O)N1CCC[C@H]1C(=O)NCc1ccc(Cl)cc1Cl |  | inconclusive [inhibitor, single point]
43 | Cc1ccccc1C(=O)c1c[nH]c(C(=O)N2CCN(c3ccccc3F)CC2)c1 |  | active: 14.6 µM
44 | CCn1c(COc2ccc(Cl)c(C)c2)nnc1SCC(=O)N1CCCC1 |  | inconclusive [inhibitor, single point]
45 | c1ccc(SCc2cn(C[C@H]3CC[C@@H]([C@@H]4CC[C@H](Cn5cc(CSc6ccccc6)nn5)O4)O3)nn2)cc1 |  | active: 16.4 µM
46 | CC1CCN(S(=O)(=O)c2cc([N+](=O)[O-])ccc2Cl)CC1 |  | inconclusive [inhibitor, single point]
47 | CCCC(=O)N1CCCC1(C)C(=O)NCc1c(F)ccc(C)c1F (configuration not stated) | inactive: -13.3% | 
48 | COC(=O)c1ccc(Cl)cc1NC(=O)N1CCC(CN2CCCC2)CC1 |  | inconclusive [inhibitor, single point]

Row | SMILES | activity change, negative = growth inhibition | Potency
49 | Cc1ccc(OCC(=O)Nc2c(C)ccc3nsnc23)cc1 |  | inconclusive [inhibitor, partial curve]
50 | Cc1ccc(C(=O)c2cn(Cc3ccccc3F)c3cc4c(cc3c2=O)OCO4)cc1 |  | active: 20.6 µM
51 | O=C(CSc1ccc(-c2nc3ccccc3[nH]2)cn1)Nc1ccc(S(=O)(=O)N2CCCC2)cc1 |  | active: 13 µM
52 | C[C@@H]1CN([C@H](C)CO)C(=O)CCCn2nncc2CO[C@@H]1CN(C)C(=O)C1CCCCC1 | inactive: 2.94% | 
53 | Cc1ccc(Cl)c2c(N=Nc3ccccc3)c(O)[nH]c12 | inactive: -26.5% | 
54 | O=C(c1cccc(S(=O)(=O)N2CCCCCC2)c1)N1CCN(Cc2ccccc2)CC1 |  | inconclusive [inhibitor, partial curve]
55 | Cc1ccc([N+](=O)[O-])cc1S(=O)(=O)Nc1ccc(C(=O)NCC2CCCO2)cc1 (configuration not stated) |  | inconclusive [inhibitor, single point]
56 | O=C(CCn1c(=O)[nH]c2ccccc2c1=O)NCCSCc1ccccc1 | inactive: -3.03% | 
57 | OC(c1ccccc1)c1nc(-c2cccc(F)c2)cs1 (configuration not stated) | inactive: -23% | 
58 | O=C(c1ccc(CNc2c(N3CCCC3)c(=O)c2=O)cc1)N1CCc2ccccc2C1 |  | inconclusive [inhibitor, single point]
59 | Cc1c(CCOC(=O)C23CC4CC(CC(C4)C2)C3)sc[n+]1Cc1ccccc1 |  | active: 10.3 µM
60 | COc1ccc(NC(=O)c2cc(C3CCCCN3S(=O)(=O)c3cccs3)on2)c(C)c1 (configuration not stated) |  | active: 23.1 µM
61 | CCCCCNC(=O)C(c1ccncc1)n1c(=O)c(-c2ccccc2)nc2ccccc21 (configuration not stated) |  | inconclusive [inhibitor, single point]
62 | CC(=O)c1ccc(-c2cnc3c(NC=O)cc(-c4cnn(C)c4)cn23)cc1 |  | active: 23.1 µM
63 | CCN(CC)C(=O)Oc1ccc(Br)c2ccccc12 |  | inconclusive [inhibitor, single point]
64 | CCOC(=O)CNC(=S)n1ncnc1N |  | inconclusive [inhibitor, partial curve]
65 | CCNC(=O)CSc1nc(-c2ccccc2)cs1 | inactive: 3.72% | 
66 | CCc1ccccc1N(C)S(=O)(=O)c1ccc2[nH]cc(C(=O)NCCOC)c(=O)c2c1 |  | inconclusive [inhibitor, single point]
67 | CC(=O)c1ccc2c(c1)C1C=CCC1C(c1ccncc1)N2 (configuration not stated) |  | inconclusive [inhibitor, partial curve, poor fit]
68 | CCn1c(COc2ccccc2)nnc1SCC(=O)C(C)(C)C |  | inconclusive [inhibitor, single point]
69 | COc1ccc(CCNS(=O)(=O)c2cccs2)cc1 | inactive: -15.6% | 
70 | Cc1n[nH]c(C)c1S(=O)(=O)N1CCC(C(=O)Nc2cccc(F)c2)CC1 | inactive: -1.49% | 
71 | O=C(C[n+]1cc(Br)cc(Br)c1)c1ccc2ccccc2c1 |  | inconclusive [inhibitor, single point]
72 | O=C(CNC(=S)NC(=O)c1ccccc1Br)c1ccccc1 | inactive: -7.64% | 
